The whole screen tested about 94,000 compounds, of which about 6,200 (6.6%) were called active. This list was built around the results that the source calls inconclusive (neither active nor inactive); the mix of calls is not that of the screen. Calls come from the whole dose curve; as a rule, active = well fitted inhibition curve with a large enough effect; inconclusive = small, poorly fitted or top-dose-only effect; inactive = flat fitted curve, though single readings scatter. Potencies beside an inconclusive call are fits to weak or partial responses and may not hold up.
Experiment: Cytotoxic Profiling in HEK 293 Cell Line of Diverse Libraries Using Quantitative High-Throughput Screening; note: nearly all actives have a fitted effect of over 60% in size
Conditions: HEK 293 viability, ATP luminescence (CellTiter-Glo), 48-72 h; series mostly up to 115 µM
Outline: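 CellTiter-Glo luminescence (cellular ATP) was read after 48 or 72 hr of compound exposure at 37 degree Celsius. Cells were HEK 293 plated at 250 cells/well.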
Potency is the fitted concentration of half-maximal effect; tags give direction and shape of the fitted curve.

| Compound | Potency |
| --- | --- |
| COc1cc2c(cc1OCc1ccccc1)N(C(=O)c1ccncc1)CC21CCN(C)CC1 | inconclusive: 89.1 µM [inhibitor, single point] |
| FC(F)(F)CN1C2CCC1CN(c1cncc(Br)c1)C2 | inactive |
| COc1ccccc1-c1cc([C@H]2CN3CC[C@H]2C[C@@H]3CNC(=O)c2cccs2)n(C)n1 | inconclusive: 89.1 µM [inhibitor, single point] |
| COc1cc2c(cc1Oc1cccc(N(C)C)c1)NC(=O)C21CCN(CC2CC2)CC1 | inconclusive: 63.1 µM [inhibitor, partial curve, poor fit] |
| CCS(=O)(=O)N1[C@H]2CC[C@@H]1c1cnc(C)nc1C2 | inactive |
| COc1cc2c(cc1OC1CCCC1)NC(=O)C21CCN(c2cnccn2)CC1 | active: 89.1 µM |
| CC[C@H]1CN2CC[C@H]1C[C@@H]2CNCc1cc2ccccc2o1 | inconclusive: 112 µM [inhibitor, partial curve, poor fit] |
| CS(=O)(=O)NC[C@H]1C[C@@H]2CCN1C[C@@H]2CN1CCc2ccccc2C1 | inactive |
| COCCN1C(=O)CO[C@H]2CN(C(C)C)C[C@H]21 | inactive |
| O=C(NCc1ccccc1)[C@H]1CN2CCC1C[C@@H]2Cn1cc(CSc2ccccc2)nn1 (stereo partly drawn) | inactive |
| COc1cncc(CN2CCC3(CC2)C(=O)Nc2cc(OC4CCCC4)c(OC)cc23)c1 | inconclusive: 70.8 µM [inhibitor, partial curve, poor fit] |
| COc1cc2c(cc1Oc1ccccc1)NC(=O)C21CCN(c2cnccn2)CC1 | inconclusive: 112 µM [inhibitor, partial curve, poor fit] |
| CN1CCN(C(=O)Cc2c[nH]c3ncc(-c4ccccc4Oc4ccccc4)cc23)CC1 | active: 79.4 µM |
| CCn1c(CO)nnc1C1CC(NC(=O)c2cnn(Cc3ccccc3)c2)C1 (stereo not drawn) | inactive |
| Cc1conc1CN1CC2(C1)NC(=O)c1ccccc1O2 | inactive |
| CC(C)(C)c1ccc(-c2cn(C[C@H]3CC4CCN3C[C@@H]4C(=O)NCc3ccccc3)nn2)cc1 (stereo partly drawn) | inconclusive: 56.2 µM [inhibitor, partial curve, poor fit] |
| COc1ccccc1-c1cc([C@H]2CN3CC[C@H]2C[C@@H]3COC(=O)Nc2ccccc2)nc(C)n1 | inconclusive: 89.1 µM [inhibitor, single point] |
| Cc1cc(S(=O)(=O)N2[C@H]3CC[C@@H]2c2cnc(-c4ccccc4)nc2C3)ccc1F | inactive |
| COc1ccc(C(=O)NC[C@H]2C[C@@H]3CCN2C[C@@H]3c2cc(-c3ccc4ccccc4c3)nn2C)cc1 | active: 17.8 µM |
| CN1CCNc2cc(Nc3ccncc3)ncc2C1 | inconclusive: 141 µM [inhibitor, partial curve, poor fit] |
| CCCNC(=O)OC[C@H]1C[C@@H]2CCN1C[C@@H]2c1cc(-c2ccc(F)cc2)nc(C)n1 | inconclusive: 100 µM [inhibitor, partial curve, poor fit] |
| Cc1ccccc1S(=O)(=O)N1[C@H]2CC[C@@H]1c1cnc(-c3ccccc3)nc1C2 | active: 25.1 µM |

| Compound | Potency |
| --- | --- |
| O=C(c1ccsc1)N1[C@H]2CC[C@@H]1c1cnc(-c3ccc(F)cc3)nc1C2 | active: 39.8 µM |
| O=C(c1ccccc1)N1C[C@@H]2C[C@H](C1)c1c(/C=C/c3ccc(Cl)cc3)ccc(=O)n1C2 | active: 89.1 µM |
| O=C(CCc1nc2ccccc2s1)N1[C@H]2CC[C@@H]1c1cnc(-c3ccccc3)nc1C2 | inconclusive: 44.7 µM [inhibitor, partial curve, poor fit] |
| COc1cc2c(cc1OCc1ccccc1)N(C(=O)c1c[nH]c3ccccc13)CC21CCN(C)CC1 | active: 22.4 µM |
| C#C[C@H]1CN2CC[C@H]1C[C@@H]2CNC(=O)c1ccc(N(C)C)cc1 | inactive |
| C=C[C@H]1CN2CC[C@H]1C[C@@H]2CNCc1ccc(C(C)C)cc1 | inconclusive: 112 µM [inhibitor, partial curve, poor fit] |
| CC(=O)c1cccc(NC(=O)OC[C@H]2C[C@@H]3CCN2C[C@@H]3c2cc(C3CCCC3)nc(C)n2)c1 | active: 14.1 µM |
| Cc1nc(-c2ccccc2)cc([C@H]2CN3CC[C@H]2C[C@@H]3CNC(=O)c2ccco2)n1 | inconclusive: 100 µM [inhibitor, partial curve, poor fit] |
| c1ccc(Nc2cc3c(cn2)CN(CC2CC2)CCN3)cc1 | active: 35.5 µM |
| COc1ccc(NC(=O)OC[C@H]2C[C@@H]3CCN2C[C@@H]3c2cc(-c3ccc(N(C)C)cc3)nc(C)n2)cc1 | active: 17.8 µM |
| COc1ccc(C(=O)N2CCC3(CC2)c2nccn2-c2ccccc2CN3C)cc1OC | inactive |
| COC[C@H]1CCCN1C[C@H]1CN2CC[C@H]1C[C@@H]2CNC(=O)Nc1ccsc1 | inconclusive: 39.8 µM [inhibitor, partial curve, poor fit] |
| C#CCN(C)C[C@H]1CN2CC[C@H]1C[C@@H]2CNC(=O)c1ccccc1 | inactive |
| O=C(c1ccsc1)N1[C@H]2CC[C@@H]1c1cnc(-c3ccccc3)nc1C2 | inactive |
| O=C(CCc1c[nH]c2ccccc12)N1[C@H]2CC[C@@H]1c1cnc(-c3ccc(F)cc3)nc1C2 | inconclusive: 39.8 µM [inhibitor, partial curve, poor fit] |
| CCCCCC(=O)N1C[C@H](C(=O)OCC)[C@H]2c3ccccc3N(CC3CC3)C(=O)[C@]21C | active: 31.6 µM |
| COc1cc2c(cc1OC1CCCC1)NC(=O)C21CCN(C(=O)c2cccc(O)c2)CC1 | active: 79.4 µM |
| COc1ccc(CN(Cc2ccc(OC)cc2)C[C@H]2C[C@@H]3CCN2C[C@@H]3c2cc(C3CCCC3)nn2C)cc1 | active: 25.1 µM |
| CC(C)(C)c1nc(CN2CCC3(CC2)C(=O)Nc2ccccc23)no1 | inconclusive: 79.4 µM [inhibitor, single point] |
| Cc1nc(-c2cccs2)cc([C@H]2CN3CC[C@H]2C[C@@H]3COC(=O)Nc2cccc(C(F)(F)F)c2)n1 | active: 11.2 µM |
| COc1cccc([C@H]2CN(C(=O)OCC(C)C)[C@@H]3C4CCN(CC4)[C@H]23)c1 | inconclusive: 79.4 µM [inhibitor, single point] |

From PubChem BioAssay AID1345083 (National Center for Advancing Translational Sciences (NCATS), 2018)
